# From the supplement of paper PMC7826260
# The list shows a part of the results. One pool of 16,384 single-stranded DNAs met each Rep nickase domain in vitro (1 h at 37 °C, 3 µM enzyme); the outer parts of the 90-letter strands are left off. Numbers give uncut DNA relative to the enzyme-free pool, as log2; the lower, the more was cut; hits are not called. The scaling is to total reads; where an enzyme cuts many sequences, the uncut ones exceed 0.
# How the values were obtained:
# Test in all cases: uncleaved DNA left, log2 of reads against the no-enzyme library (log2 ratio); higher = less cleavage (more negative = more Rep cleavage of the k-mer); sequences stand for … in CTCGTCCG…ACCGGAGA
# [1] = test system: T1, Rep nickase domain of Muscovy duck circovirus
# T1 sequence (residues 1-111 of Rep, tag left off): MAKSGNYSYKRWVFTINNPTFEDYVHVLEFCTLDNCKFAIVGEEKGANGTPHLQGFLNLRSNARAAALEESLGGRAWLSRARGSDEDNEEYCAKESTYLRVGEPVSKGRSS
# Procedure: (§1)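 A pool of 90-nt single-stranded DNAs with seven random bases just before the constant AC of the nick site (name = the seven bases) was cut by 3 µM recombinant His6-SUMO-tagged Rep nickase domain (300 nM DNA, 50 mM HEPES pH 8.0, 50 mM NaCl, 1 mM MnCl2, 1 h, 37 °C, three replicates). Uncut DNA was amplified and sequenced.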
# [2] = test system: T2, Rep nickase domain of banana bunchy top virus
# T2 sequence (residues 1-94 of Rep, tag left off): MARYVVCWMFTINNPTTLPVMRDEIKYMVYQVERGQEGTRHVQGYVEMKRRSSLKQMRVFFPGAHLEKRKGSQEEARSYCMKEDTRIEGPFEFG
# Procedure: as §1
# [3] = test system: T3, Rep nickase domain of cabbage leaf curl virus
# T3 sequence (residues 1-116 of Rep, tag left off): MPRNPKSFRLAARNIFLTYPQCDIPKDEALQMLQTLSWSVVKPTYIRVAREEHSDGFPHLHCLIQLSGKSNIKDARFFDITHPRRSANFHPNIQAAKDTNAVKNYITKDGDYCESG
# Procedure: as §1
# [4] = test system: T4, Rep nickase domain of chickpea chlorotic dwarf virus
# T4 sequence (residues 1-124 of Rep, tag left off): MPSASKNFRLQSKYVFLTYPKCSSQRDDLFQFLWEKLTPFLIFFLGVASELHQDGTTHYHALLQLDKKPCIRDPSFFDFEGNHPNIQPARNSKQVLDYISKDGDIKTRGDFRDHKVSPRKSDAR
# Procedure: as §1
# [5] = test system: T5, Rep nickase domain of faba bean necrotic yellows virus
# T5 sequence (residues 1-98 of Rep, tag left off): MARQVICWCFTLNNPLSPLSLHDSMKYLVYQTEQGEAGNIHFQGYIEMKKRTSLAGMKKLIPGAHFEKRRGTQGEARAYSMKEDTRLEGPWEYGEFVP
# Procedure: as §1
# [6] = test system: T6, Rep nickase domain of maize striate mosaic virus
# T6 sequence (residues 1-117 of Rep, tag left off): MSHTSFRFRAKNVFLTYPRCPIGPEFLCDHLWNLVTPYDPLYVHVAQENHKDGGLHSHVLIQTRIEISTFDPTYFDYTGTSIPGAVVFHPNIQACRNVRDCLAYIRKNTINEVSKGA
# Procedure: as §1
# [7] = test system: T7, Rep nickase domain of porcine circovirus 2
# T7 sequence (residues 2-116 of Rep, tag left off): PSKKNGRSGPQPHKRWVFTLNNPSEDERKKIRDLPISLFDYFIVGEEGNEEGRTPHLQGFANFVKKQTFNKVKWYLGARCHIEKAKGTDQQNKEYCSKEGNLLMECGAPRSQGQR
# Procedure: as §1
# [8] = test system: T8, Rep nickase domain of tomato yellow leaf curl virus
# T8 sequence (residues 1-136 of Rep, tag left off): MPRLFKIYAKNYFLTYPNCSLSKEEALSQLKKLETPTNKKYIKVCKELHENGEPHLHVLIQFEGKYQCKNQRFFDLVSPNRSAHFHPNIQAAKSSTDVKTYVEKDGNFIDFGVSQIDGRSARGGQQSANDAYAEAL
# Procedure: as §1
# [9] = test system: T9, Rep nickase domain of wheat dwarf virus
# T9 sequence (residues 1-137 of Rep, tag left off): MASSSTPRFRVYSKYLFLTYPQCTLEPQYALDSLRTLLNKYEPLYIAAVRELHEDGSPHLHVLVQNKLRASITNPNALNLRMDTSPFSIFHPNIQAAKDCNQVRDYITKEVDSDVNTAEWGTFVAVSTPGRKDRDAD
# Procedure: as §1
Sequence,uncleaved DNA left (log2) [1],uncleaved DNA left (log2) [2],uncleaved DNA left (log2) [3],uncleaved DNA left (log2) [4],uncleaved DNA left (log2) [5],uncleaved DNA left (log2) [6],uncleaved DNA left (log2) [7],uncleaved DNA left (log2) [8],uncleaved DNA left (log2) [9]
CCTTAAT,-2.19,-0.285,-0.11,-1.36,-0.0262,-0.781,-3.68,-0.0832,-0.129
AGAGGAT,0.00298,-0.0542,0.218,1.67,0.0219,1.89,0.176,-0.13,0.0782
TCGATTT,-0.101,-0.228,-0.408,-2.07,-0.0922,-0.193,-1.53,0.0544,-0.142
CGTAAGA,0.0849,0.0949,-0.0147,-0.0668,0.101,-0.813,0.0727,0.0101,0.133
GCAGCCT,-0.018,-0.0149,-0.187,-1.31,-0.224,-0.323,-0.189,-0.116,-0.11
GGGGTTC,0.188,0.0529,0.785,1.71,-0.0752,2.24,0.198,0.0558,0.274
CATACGT,0.0844,-0.117,0.164,-0.535,0.0956,-0.496,0.01,-0.0532,-0.0957
TCAACGA,0.0348,-0.0889,-0.138,-0.796,0.0722,-0.916,0.0446,-0.147,-0.0884
ACGCGAA,0.0549,-0.0832,-0.465,-0.623,0.0253,-0.847,0.203,0.108,-0.0107
GTAGTAG,-0.0783,0.00558,-0.0667,0.0466,-0.0545,-0.326,0.0205,0.0148,0.0673
AAAGGAA,0.00855,0.00518,0.18,1.5,0.0703,1.6,0.24,-0.176,0.134
TCTGCAA,-0.0333,0.0835,-0.187,-0.492,0.0396,-1.03,0.0397,0.0656,0.036
AGCTCAG,0.00124,0.00593,-0.336,-0.00254,0.0145,-0.63,0.0158,-0.0233,0.00906
TTCCTTA,-0.123,-0.171,-0.055,-0.906,-0.0572,-0.0823,-0.201,-0.111,-0.122
ACTTATA,-0.206,-0.0813,-0.296,-1.65,-0.0183,-0.759,-0.117,-0.122,0.00636
ACTAGTC,0.0198,0.0482,-0.196,-0.169,0.0273,-0.903,0.0805,0.0647,-0.0474
TACTACT,-3.82,-3.8,-3.96,-3.88,-2.01,-1.69,-4.22,-0.0407,-2.26
GTGTACT,-0.361,-0.0128,0.419,0.808,-0.102,1.95,-2.38,0.122,0.21
TTGATAG,0.138,-0.111,-0.683,-0.593,0.0588,-1.03,0.122,0.0179,-0.00554
ATATCTT,-3.31,-0.243,-1.46,-2.52,0.0226,-0.885,-3.23,0.0448,-0.415
TGCAAGC,0.0064,0.0162,0.00889,0.236,-0.0219,-0.256,0.0362,0.0401,0.00601
GGATTGT,-0.0731,0.0896,0.321,0.962,-0.00282,0.9,-0.0486,0.063,0.0486

Sequence,uncleaved DNA left (log2) [1],uncleaved DNA left (log2) [2],uncleaved DNA left (log2) [3],uncleaved DNA left (log2) [4],uncleaved DNA left (log2) [5],uncleaved DNA left (log2) [6],uncleaved DNA left (log2) [7],uncleaved DNA left (log2) [8],uncleaved DNA left (log2) [9]
CCTTCTT,-2.46,-0.443,-0.311,-2.82,-0.0896,-0.848,-2.83,-0.0874,-0.133
CAGGATA,0.115,0.0807,0.375,1.39,0.121,1.61,0.246,-0.0612,0.0444
GAGTTAA,-0.0253,0.064,0.252,0.533,0.0709,1.17,-2.43,0.103,0.116
ATAATAC,-0.711,-0.00811,0.0792,-1.59,-0.0135,-0.992,-1.03,-0.178,-0.0305
GACCAGC,-0.12,-0.00494,-0.0787,0.345,-0.142,-0.433,-0.00853,0.0132,-0.124
CCATAGG,-0.0553,-0.0872,-0.0815,0.504,0.0624,-0.358,0.102,-0.146,-0.0823
ACCCCCC,0.0369,-0.0402,-0.00767,0.000911,-0.00401,-0.184,-0.0783,-0.194,0.0618
CCTAAGT,0.0423,0.119,0.0872,-0.225,0.00514,-0.843,-0.0955,0.0688,-0.157
AAGCGAC,-0.00525,-0.0305,-0.0339,0.598,-0.0664,0.741,0.0744,-0.112,0.0389
ATTCCTG,-0.218,-0.0172,-0.193,-0.101,-0.0578,-0.0781,-0.242,0.00431,-0.029
GCGAAGA,0.119,0.0828,0.217,0.488,0.0229,0.00552,0.158,0.0252,-0.0112
CGATGCG,0.000893,0.0168,-0.637,0.709,-0.0177,-0.342,0.068,-0.0991,-0.107
TTAAATC,0.111,0.0996,0.265,-0.514,0.0506,-0.301,0.104,0.00878,0.0251
GCTGTGC,0.0862,0.0352,-0.268,-0.256,0.0212,-0.899,0.0944,0.0249,-0.0559
CATTGAC,0.0803,0.0517,-0.599,-0.355,0.00419,-0.954,0.186,0.141,0.0931
TTTAAAT,0.0402,0.144,0.117,-0.397,0.00243,-0.0665,-0.715,0.141,0.0443
AACGTTG,-0.00382,0.0739,-0.0264,0.419,-0.00134,0.367,0.177,0.0172,0.00884
CTGCCGA,-0.0575,-0.0328,-0.171,-0.253,-0.0153,-0.521,0.0311,0.0684,-0.12
CCAGCTA,-0.0931,-0.0157,-0.0451,-0.366,-0.0338,0.087,-0.0127,-0.143,-0.0585
GGGTGTG,0.034,-0.0781,0.379,0.776,0.0145,0.731,0.134,0.0416,-0.0761
CCTCGTA,-0.114,0.0331,-0.188,-1.07,0.00946,-0.937,0.0297,-0.0786,-0.0968
CTTTCAG,0.0372,0.0298,-0.655,-0.553,0.0534,-0.969,0.0995,-0.0115,-0.158

Sequence,uncleaved DNA left (log2) [1],uncleaved DNA left (log2) [2],uncleaved DNA left (log2) [3],uncleaved DNA left (log2) [4],uncleaved DNA left (log2) [5],uncleaved DNA left (log2) [6],uncleaved DNA left (log2) [7],uncleaved DNA left (log2) [8],uncleaved DNA left (log2) [9]
CTCTCGG,0.199,0.131,0.599,1.49,0.0856,1.68,0.194,0.0361,0.0857
TTATTTC,-0.145,-0.0849,-0.0913,-0.557,-0.0539,-0.869,-0.0543,0.0071,-0.022
ATACGCT,-0.0652,-0.101,-0.954,-2.44,-0.0793,-1.03,-0.0328,-0.0826,-0.221
CAAACAC,0.00662,-0.0469,-0.297,-0.859,0.013,-0.85,0.124,-0.128,0.0371
ATCTACG,-0.124,-0.111,-0.892,-0.487,-0.0181,-1.1,0.141,-0.0882,-0.19
AGCGTTT,0.0933,0.0705,-0.0367,-0.484,-0.00858,0.668,-0.552,0.0622,0.139
TCTGGGC,-0.177,0.0204,0.145,-0.00406,-0.0882,-0.436,0.0476,-0.0176,-0.0793
GTTTAAA,0.0128,0.116,0.365,0.977,0.128,1.82,0.142,0.142,0.108
CGGTCAC,-0.0347,-0.00463,0.27,0.573,-0.0159,0.604,0.0108,-0.0367,0.0952
ACTAAGC,-0.0427,-0.0336,-0.178,-0.306,0.0379,-1.09,0.113,-0.0148,-0.126
CACAGGA,0.0199,0.0348,0.225,0.454,0.0647,-0.297,0.215,-0.0352,0.0883
AGGGATC,0.0198,-0.0186,0.13,1.27,-0.183,1.42,0.0256,-0.0332,0.0541
CCCGAAT,0.0756,0.0388,0.0926,-0.201,-0.147,-0.116,-0.262,-0.0627,-0.182
GAAAAGC,0.0759,0.0181,0.0253,0.333,0.00131,-0.452,0.142,-0.0181,0.063
CATGAGT,-0.0277,-0.056,-0.524,-0.976,0.211,-1.07,0.0672,0.0659,-0.0692
ATCACCT,-0.0958,-0.0859,-0.123,-2.05,-0.0514,-0.223,-0.226,-0.17,-0.0204
CTTTAAT,-3.04,-0.453,-0.0472,-1.46,-0.0375,-0.583,-3.68,0.00715,0.000495
AAGAACC,0.0833,-0.0206,0.155,0.047,0.0832,0.147,-0.125,-0.0463,0.113
CGGGAAG,-0.00829,-0.0566,-0.168,0.314,-0.169,-0.181,0.225,0.0121,0.0249
TGCGTCT,-0.00031,-0.207,-0.22,-0.506,-0.133,-0.147,-0.042,-0.103,-0.168
